Results reported in PubChem BioAssay (NCI).
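Following 48 hours of exposure in 96-well plates, responses at five concentrations were used to interpolate endpoints linearly. The concentration for 50% growth inhibition is given as GI50.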 A number of entries come with more than one value. The other results are left out here. The source may hold further records. For some of these results: Results that share an entry are repeated measurements (runs, samples, wells, individuals or studies). Records carry a tag for their origin. A, B and so on number the origins entry by entry.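 TGI: concentration producing complete growth inhibition.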 For some of these results: A record mostly stands for its own series of concentrations, which the source does not state; some values may only mark the edge of a range.

What was measured:
Assay in all cases: DTP human tumour cell line panel, 48 h
M19-MEL melanoma = test system: M19-MEL melanoma
SN12C renal = test system: SN12C renal
HCT-116 colon = test system: HCT-116 colon
KM12 colon = test system: KM12 colon
HT29 colon = test system: HT29 colon
U251 CNS = test system: U251 CNS
XF 498 CNS = test system: XF 498 CNS
KM20L2 colon = test system: KM20L2 colon
SF-268 CNS = test system: SF-268 CNS
SF-295 CNS = test system: SF-295 CNS
NCI-H460 lung = test system: NCI-H460 lung
IGROV1 ovarian = test system: IGROV1 ovarian
DLD-1 colon = test system: DLD-1 colon
NCI-H23 lung = test system: NCI-H23 lung
SK-OV-3 ovarian = test system: SK-OV-3 ovarian
NCI-H226 lung = test system: NCI-H226 lung
RXF 393 renal = test system: RXF 393 renal
OVCAR-3 ovarian = test system: OVCAR-3 ovarian
NCI-H522 lung = test system: NCI-H522 lung
DMS 114 small cell lung = test system: DMS 114 small cell lung
OVCAR-4 ovarian = test system: OVCAR-4 ovarian

CC(=O)O[C@H]1C(=O)[C@@]2(C)C([C@H](OC(=O)c3ccccc3)[C@]3(O)C[C@H](OC(=O)[C@H](O)[C@H](NC(=O)c4ccccc4)c4ccc(Cl)cc4)C(C)=C1C3(C)C)C1(OC(C)=O)CO[C@@H]1C[C@@H]2O (some centres not stated)
TGI (M19-MEL melanoma): 3.65 nM and 14.7 µM
TGI (SN12C renal): 30.1 nM and 90.8 µM
TGI (HCT-116 colon): 1.76 nM and 11.5 µM
TGI (KM12 colon): 2.77 nM and 16.7 µM
TGI (HT29 colon): 2.82 nM and 2.91 µM
TGI (U251 CNS): 22.4 nM and 19.3 µM
TGI (XF 498 CNS): 45.8 nM and 25.8 µM
TGI (KM20L2 colon): 3.06 nM and 1.21 µM
TGI (SF-268 CNS): 97.5 nM and 78.4 µM
TGI (SF-295 CNS): 232 nM and 12.8 µM
TGI (NCI-H460 lung): 593 nM and 13.1 µM
TGI (IGROV1 ovarian): 11.6 nM and 22.3 µM
TGI (DLD-1 colon): 443 nM and 48.3 µM
TGI (NCI-H23 lung): 4.43 nM and 48.5 µM
TGI (SK-OV-3 ovarian): 6.64 nM and 19.5 µM

COc1cc(CCc2cc(NC(=O)c3ccc(N4C[C@@H](C)N[C@@H](C)C4)cc3)n[nH]2)cc(OC)c1
GI50 (NCI-H226 lung): 125 nM [sample A, 1 test] and 3.97 µM [sample B, 1 test]
GI50 (RXF 393 renal): 56.5 nM [sample A, 1 test] and 2 µM [sample B, mean of 2 tests]

CCOC(=O)/N=c1\ss/c(=N\C(=S)N(C)C)n1-c1ccccc1
TGI (M19-MEL melanoma): 8.21 µM and > 100 µM
TGI (OVCAR-3 ovarian): 1.97 µM and > 100 µM
TGI (NCI-H522 lung): 549 nM and 5.59 µM
TGI (DMS 114 small cell lung): 2.61 µM and > 100 µM
TGI (OVCAR-4 ovarian): 7.58 µM and > 100 µM
